The results in this text go back to the supplement of paper PMC3334620.

In all, about 33,000 sequences were measured (“E-score (-0.5 to 0.5)”: median about -0.032, highest 2% from about 0.36 on). The list shows a part of the results.

The test has as its target T1, Sko1 (UniProt Q02100).
T1 sequence: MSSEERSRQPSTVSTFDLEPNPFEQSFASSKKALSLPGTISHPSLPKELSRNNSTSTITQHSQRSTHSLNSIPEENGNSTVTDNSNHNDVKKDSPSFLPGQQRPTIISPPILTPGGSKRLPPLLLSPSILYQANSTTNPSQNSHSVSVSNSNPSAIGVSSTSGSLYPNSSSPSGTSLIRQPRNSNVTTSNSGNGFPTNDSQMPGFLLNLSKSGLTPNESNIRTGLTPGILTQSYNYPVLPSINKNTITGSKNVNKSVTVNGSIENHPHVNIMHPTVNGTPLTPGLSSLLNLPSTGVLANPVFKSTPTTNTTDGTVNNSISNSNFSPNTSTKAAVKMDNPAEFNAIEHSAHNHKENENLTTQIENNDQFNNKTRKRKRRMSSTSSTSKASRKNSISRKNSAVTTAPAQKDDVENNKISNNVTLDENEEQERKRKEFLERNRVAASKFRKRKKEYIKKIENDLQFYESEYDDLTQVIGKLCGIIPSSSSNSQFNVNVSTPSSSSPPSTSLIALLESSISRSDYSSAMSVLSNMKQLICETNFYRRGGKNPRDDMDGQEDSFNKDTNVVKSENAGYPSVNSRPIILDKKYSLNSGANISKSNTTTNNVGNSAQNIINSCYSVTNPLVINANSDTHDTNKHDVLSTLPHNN
The test can be described thus: PBM E-score (8-mer binding enrichment) (E-score (-0.5 to 0.5)); higher = stronger / more preferred TF binding; most listed sequences are background and not binding sites. The note with it: protein concentration: 200 nM; construct: GST-full length. Summed up:
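The E-score, a modified Wilcoxon-Mann-Whitney statistic, was computed by the Universal PBM Analysis Suite for every ungapped eight-base word pooled with its reverse complement. Scans behind it were normalised with masliner after bound GST-tagged yeast transcription factors were detected with fluorescent anti-GST. The proteins, at about 100-200 nM, had been applied to universal all-10-mer Agilent arrays made double-stranded by primer extension.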
As to GCGGTCTA, the “PBM E-score” value was determined as 0.0211.

AAATCCGA: the “PBM E-score” value is -0.0131.

Turning to CGTGGTAG, the “PBM E-score” value was -0.0615.

GTGACCTA: the “PBM E-score” value was 0.188.

Take CGCTGATC: the “PBM E-score” value is -0.199.

As to CCCCATAC, the “PBM E-score” value was 0.0384.

Consider CCTTGTAC, for which the “PBM E-score” value is -0.131.

As to AGCTCAGG, the “PBM E-score” value was 0.0455.

Take AGTTTTGG: the “PBM E-score” value was -0.0638.

For the sequence CCAACGGA, the “PBM E-score” value is -0.209.

In the case of AACGATCT, the “PBM E-score” value was -0.0442.

On to ATACAGGA, for which the “PBM E-score” value was determined as 0.00041.

For GCTACTCA, the “PBM E-score” value was determined as 0.00698.

Regarding AGCGCACT, the “PBM E-score” value is -0.177.

With ACCATCGG, the “PBM E-score” value was -0.172.

For the sequence ACCGCGTA, the “PBM E-score” value was determined as 0.228.

CTCAACTC: the “PBM E-score” value is -0.016.

In the case of AGAAACTC, the “PBM E-score” value amounted to 0.0471.

With CCGGTCAC, the “PBM E-score” value was -0.178.

As for AGGGACCA, the “PBM E-score” value was -0.151.

In the case of AGTCTACC, the “PBM E-score” value was -0.199.

For the sequence ACTGTTAG, the “PBM E-score” value was -0.116.

Regarding GCTCCGCC, the “PBM E-score” value is -0.256.

For ACGTTCGG, the “PBM E-score” value was 0.0529.

With GCACGAGC, the “PBM E-score” value was -0.179.

In the case of GCATAGAC, the “PBM E-score” value is -0.0955.

As for AGAAACAT, the “PBM E-score” value was 0.152.

For CACTAACC, the “PBM E-score” value is -0.0646.

On to GACACCCC, for which the “PBM E-score” value was -0.0731.

Consider AGGACAGC, for which the “PBM E-score” value is -0.144.

Regarding CGAAGTGA, the “PBM E-score” value stood at 0.0979.

Turning to ACAAGTGA, the “PBM E-score” value was determined as 0.109.

For ATGAGCAA, the “PBM E-score” value was found to be 0.0476.

For AAGACGAT, the “PBM E-score” value amounted to 0.25.

Consider GCGTACTA, for which the “PBM E-score” value was 0.232.

Take AGCGCGCC: the “PBM E-score” value is -0.14.

Consider AAAGGTAC, for which the “PBM E-score” value was -0.0964.

Consider AATCGATG, for which the “PBM E-score” value was determined as 0.255.

With CATGTCAC, the “PBM E-score” value was 0.249.

On to ATACTGAG, for which the “PBM E-score” value was 0.0933.

Turning to TCCCCCGA, the “PBM E-score” value is -0.431.

For CCAAAATA, the “PBM E-score” value is 0.057.

On to ATGCGAAG, for which the “PBM E-score” value was determined as 0.0576.

In the case of ATCCGAGG, the “PBM E-score” value is -0.0521.

Turning to AGGTTGCA, the “PBM E-score” value was determined as 0.0863.

In the case of CAGGCCAG, the “PBM E-score” value is -0.289.

Regarding CCAGGAGG, the “PBM E-score” value was -0.234.

With GATGGTTA, the “PBM E-score” value turned out to be 0.107.

CAGACAAG: the “PBM E-score” value was -0.15.

Take AAATCGAA: the “PBM E-score” value worked out at 0.0851.

Take ATTAGAAG: the “PBM E-score” value is 0.0144.

Turning to CAACAGAA, the “PBM E-score” value is -0.0413.

Take CTAAATGC: the “PBM E-score” value came to 0.084.

As to GGGGGAAA, the “PBM E-score” value is -0.261.

On to AAAGGGAA, for which the “PBM E-score” value was -0.21.

AACGAATG: the “PBM E-score” value was found to be 0.162.

As to CAGTATAC, the “PBM E-score” value came out at 0.0943.

For CGGGGTTC, the “PBM E-score” value was -0.253.

With CAAATACG, the “PBM E-score” value turned out to be 0.319.

Take ATTCAGCA: the “PBM E-score” value came out at 0.00168.

In the case of CAAAGAGC, the “PBM E-score” value is -0.157.

As for GGAGCCCC, the “PBM E-score” value is -0.196.

CTTTTCAA: the “PBM E-score” value stood at 0.0353.

In the case of GAAAATAC, the “PBM E-score” value is 0.142.

CGCCGAGC: the “PBM E-score” value is -0.134.

For CCTTGTGC, the “PBM E-score” value is -0.31.

GAGGTTAC: the “PBM E-score” value stood at 0.0947.

Regarding TGCCCCAA, the “PBM E-score” value was -0.161.

Consider CGTAGACA, for which the “PBM E-score” value amounted to 0.264.

With CCGTAAAG, the “PBM E-score” value was found to be 0.0256.

For the sequence AAATCATG, the “PBM E-score” value was found to be 0.00352.

As for CTGGTGGA, the “PBM E-score” value is -0.185.

Regarding GGCGCCCA, the “PBM E-score” value was -0.0348.

Consider GGCGGACA, for which the “PBM E-score” value is -0.192.

Take ACTCCCCG: the “PBM E-score” value is -0.144.

For AATTGCCG, the “PBM E-score” value is -0.152.

Regarding GCCAGTTA, the “PBM E-score” value came to 0.0572.

Regarding CGACCCTA, the “PBM E-score” value was -0.235.

For the sequence CTTAAATA, the “PBM E-score” value was -0.0369.

Consider AGTCGTAT, for which the “PBM E-score” value is 0.0845.

With GGTGACCA, the “PBM E-score” value was -0.137.

Regarding GGCTTGGA, the “PBM E-score” value is -0.184.

With CCGATGCG, the “PBM E-score” value was -0.123.

With CGGTACGA, the “PBM E-score” value was 0.186.

ACCCATTA: the “PBM E-score” value is -0.0424.

For the sequence CAAGTGTG, the “PBM E-score” value was -0.0161.

As for AAGGGGCT, the “PBM E-score” value was -0.162.

Consider CGAACACG, for which the “PBM E-score” value was 0.163.

On to CCCACGCG, for which the “PBM E-score” value is -0.11.

Consider GTGCTTGA, for which the “PBM E-score” value is 0.101.

Turning to GCGTATCC, the “PBM E-score” value is 0.142.

ACCATAGG: the “PBM E-score” value was -0.232.

Turning to CGAAGTCG, the “PBM E-score” value turned out to be 0.168.

On to AATAAAAA, for which the “PBM E-score” value is 0.21.

In the case of GAGTTAGA, the “PBM E-score” value came out at 0.0048.

GATGGTAA: the “PBM E-score” value is -0.0973.

In the case of GATTATCA, the “PBM E-score” value was determined as 0.0107.

In the case of AGTTGGCG, the “PBM E-score” value is -0.0454.

Consider GACAGAGA, for which the “PBM E-score” value stood at 0.00436.

As for CGACGTCG, the “PBM E-score” value stood at 0.209.

AGAGTCAA: the “PBM E-score” value is -0.224.

Consider AGCAATAT, for which the “PBM E-score” value was determined as 0.0119.

In the case of GGTAATAA, the “PBM E-score” value was 0.185.

CTAATTAC: the “PBM E-score” value came to 0.323.

Take ACATGCTA: the “PBM E-score” value amounted to 0.0885.

CGAAGCCG: the “PBM E-score” value was -0.229.

As to AGGTAGCA, the “PBM E-score” value is -0.0865.

On to CATGGGAA, for which the “PBM E-score” value is -0.11.

Turning to ATGTACGG, the “PBM E-score” value was -0.046.
